Data as given in PubChem BioAssay AID504832 (National Center for Advancing Translational Sciences (NCATS), 2011).
Out of some 310,000 compounds screened, about 18,000 (5.8%) were called active. The inconclusive results got no clear call from the source; some entries with a clear call stand among them for comparison. Calls follow the shape of the dose curve; as a rule, active = well fitted inhibition curve with a large enough effect; inconclusive = small, poorly fitted or top-dose-only effect, or another doubt; inactive = no such curve, though single readings can be large or run the other way. No potency is given beside an inconclusive call; the fits are too rough.

Assay: Primary qHTS for delayed death inhibitors of the malarial parasite plastid, 48 hour incubation
Details: P. falciparum luciferase growth in erythrocytes; series mostly up to 28.7 µM
Procedure, shortened: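 Read-out is firefly luciferase luminescence from an integrated reporter in P. falciparum, so falling signal marks reduced parasite growth. Infected erythrocytes were at 2% hematocrit and 0.1% parasitemia (final) in Albumax-supplemented RPMI 1640.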
Potency is read from the fitted curve at half-maximal effect; tags tell the direction and shape of the fitted curve.

Row | Structure (SMILES) | Potency
1 | O=C(NCCCN1CCCCC1)C1CCCN(c2ncnc3c2nc2n3CCCCC2)C1 (stereo not drawn) | inconclusive [inhibitor, partial curve]
2 | CC1=NN(Cc2ccccc2)C(=O)C1C(c1ccccc1)C(C#N)C#N (stereo not drawn) | inconclusive [inhibitor, partial curve, poor fit]
3 | CC(C)(CN1CCOCC1)NS(=O)(=O)c1ccccc1 | inactive
4 | Cc1cc(=O)n2[nH]c(-c3ccccc3Cl)cc2n1 | inactive
5 | CC(C)c1cccc(C(C)C)c1NC(=O)COC(=O)[C@H](C)NC(N)=O | inconclusive [inhibitor, single point]
6 | O=C(CCCN1C(=O)C2CCCCN2C1=O)N1CCN(c2ccc([N+](=O)[O-])cc2)CC1 (stereo not drawn) | inactive
7 | COc1cccc(-c2nnc(NC(=O)CCS(=O)(=O)c3ccc(C)cc3)o2)c1 | inconclusive [inhibitor, single point]
8 | CCOC(=O)c1cnc2c(C(F)(F)F)cccc2c1NCCCN1CCOCC1 | active: 5.22 µM
9 | O=C(CSc1ncn[nH]1)CSc1ncn[nH]1 | inconclusive [inhibitor, full curve, poor fit]
10 | COc1cc(/C=N/Nc2ccc3ccccc3c2)ccc1OC(=O)c1ccco1 | inconclusive [inhibitor, single point]
11 | COC(=O)C1=C(C)N(CC2CC2)C(=O)N[C@H]1c1ccc(Br)cc1 | inconclusive [inhibitor, single point]
12 | Fc1ccc(C2CC(c3ccc(F)cc3)n3ncnc3N2)cc1 (stereo not drawn) | inconclusive [inhibitor, partial curve, poor fit]
13 | O=C(NCCc1c[nH]c2ccccc12)c1cc(S(=O)(=O)N2CCCCC2)ccc1N1CCOCC1 | active: 7.38 µM
14 | COc1cccc(-c2csc(N3CCN(C(=S)Nc4ccccc4Cl)CC3)n2)c1 | active: 13.1 µM
15 | CC1=NN(c2ccccc2)C(=O)C1C=Nc1ccc(N(C)C)cc1 (stereo not drawn) | inconclusive [inhibitor, partial curve]
16 | COc1ccc(C2C(C(=O)OC(C)C)=C(C)N=c3s/c(=C\c4cccs4)c(=O)n32)cc1 (stereo not drawn) | inconclusive [inhibitor, partial curve, poor fit]
17 | Cc1ccc(-c2nnc(Nc3cccc(O)c3)c3ccccc23)cc1S(=O)(=O)NCCO | inconclusive [inhibitor, partial curve, poor fit]
18 | COc1ccc(-c2csc(Cc3nnc(N4CCOCC4)n3-c3ccccc3)n2)cc1OC | inconclusive [inhibitor, single point]
19 | Cc1ccc(S(=O)(=O)N(C)CC(=O)Nc2cccnc2)cc1 | inconclusive [inhibitor, partial curve, poor fit]
20 | CCOC(=O)C1CCN(CC(=O)Nc2c(C(=O)OC)[nH]c3ccc(Cl)cc23)CC1 | active: 13.1 µM
21 | Cc1sc2nc(SCC(=O)C(C)(C)C)n(Cc3ccco3)c(=O)c2c1C | active: 3.7 µM
22 | CC1CCCC(C)N1C(=O)COC(=O)C(Cc1ccccc1)NC(=O)c1cccs1 (stereo not drawn) | inactive

Row | Structure (SMILES) | Potency
23 | N=c1occ(C(=O)c2cc(F)ccc2O)cc1C(=O)NC1CCCCC1 | inconclusive [inhibitor, single point]
24 | CCCCNc1nc(N(C)c2ccccc2)nc(-n2ccnc2)n1 | active: 16.5 µM
25 | OC(CN1CCN(c2cccc(C(F)(F)F)c2)CC1)c1c[nH]c2ccccc12 (stereo not drawn) | inconclusive [inhibitor, partial curve, poor fit]
26 | CC(C)C(=O)N1CCN(c2ccc(NC(=O)c3ccc(Br)o3)cc2)CC1 | inactive
27 | CCCCn1c(N)c(N(CCC(C)C)C(=O)C2CSC3(C)CCC(=O)N23)c(=O)[nH]c1=O (stereo not drawn) | inconclusive [inhibitor, single point]
28 | O=C(NCC1CCCO1)c1ccc(N2C(=O)C3CCCCC3C2=O)cc1 (stereo not drawn) | inactive
29 | O=c1[nH]c2ccccc2n1CCCN1CCC(n2c(=O)[nH]c3cc(Cl)ccc32)CC1 | active: 10.7 µM
30 | CCOc1ccc(S(=O)(=O)N2CCN(C)CC2)cc1NC(=O)c1ccccc1F | inconclusive [inhibitor, single point]
31 | CCOC(=O)C1(Cc2ccccc2C(F)(F)F)CCN(C2CCSC2)CC1 (stereo not drawn) | inconclusive [inhibitor, partial curve, poor fit]
32 | CCCCCC(=O)Nc1nc(C)c(-c2csc(Nc3ccccc3OCC)n2)s1 | inconclusive [inhibitor, partial curve, poor fit]
33 | CC(NC(=S)Nc1ccc([N+](=O)[O-])cc1)c1ccncc1 (stereo not drawn) | inconclusive [inhibitor, single point]
34 | Fc1cc(F)cc(-c2c(-c3ccccc3)ncc3ccc(F)cc23)c1 | inconclusive [inhibitor, partial curve, poor fit]
35 | O=C(OCc1ccc2c(c1)OCO2)c1ccc(S(=O)(=O)N2CCCC2)cc1 | inconclusive [inhibitor, single point]
36 | CN1CCN(c2cc(N3CCCC3)c([N+](=O)[O-])cc2F)CC1 | inactive
37 | O=C(NC1CCCCCC1)c1cc(S(=O)(=O)N2CCC3(CC2)OCCO3)ccc1F | inconclusive [inhibitor, single point]
38 | CCC(NC(=O)CCc1nnc(-c2cc(C)on2)o1)C12CC3CC(CC(C3)C1)C2 (stereo not drawn) | inconclusive [inhibitor, full curve, poor fit]
39 | COc1cccc(CN(C)C(=O)CCNC(=O)c2ccc(Br)cc2)c1 | inconclusive [inhibitor, full curve, poor fit]
40 | NS(=O)(=O)c1ccc(NC(=O)/C=C/c2cn(-c3ccccc3)nc2-c2cccc(Cl)c2)cc1 | active: 10.4 µM
41 | CCCc1cc(=O)n2[nH]c(NCc3ccc(Cl)cc3Cl)nc2n1 | inactive
42 | O=C(COC(=O)CCOc1ccccc1)Nc1ccc(Cl)cn1 | inactive
43 | CCc1ccc(CN2CCC(n3nccc3NC(=O)C3CCCC3)CC2)cc1 | inactive
